This is one part of the list.
What follows are sequences tested on PfSIP2 AP2 domain 1 (GST-tagged) (assay: gcPBM binding intensity (ln(normalized median fluorescence intensity)); higher = stronger DNA binding).
Procedure, shortened: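 An Agilent 4 × 180k array of primer-extended double-stranded 36-bp intergenic genomic probes, with negative controls, was incubated for 1 h with GST-tagged P. falciparum DNA-binding domains expressed in E. coli. Alexa488 anti-GST antibody detected bound protein, scanned at 488 nm. Binding intensity is the highest Masliner-normalised natural-log median intensity across replicate spots of either probe orientation.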

Sequence	gcPBM binding intensity (ln)
GCATTATTTACCACAACACACAAATATTTACCAATC [CACACA_site2669]	7.56
TAATTTCATCATATTTGTTCCTTCTCAAAATTTTTT [CACACA_negctrl_site217]	7.01
ACTATATATTTAATATGTACACATATTTCTGTCGAT [XGTACX_site6878]	7.28
TTCCTAAGAATAATCAGTACACATAAAAAGAACATA [XGTACX_site7861]	7.17
ATATATATATATATATGTACATATTTTTAATTATAA [XGTACX_site7444]	9.31
TTGTTTCTTAAATTATTTATTTTATATTAAAAAAAA [XGTACX_negctrl_site224]	7.14
AAGAAAATGAAAAAGTAAAAACATATATTAAATATA [TGCATGCA_negctrl_site123]	6.69
ATTCGTAGTTTTATGAATTAATATAATAAAAATTAA [XGTACX_negctrl_site181]	6.71
TCGTAGTTACTATGGCAAGAAAATAAACGGTCTTGT [GTGCAC_negctrl_site684]	6.8
ATAGAATAATATTGTAGTACTAAAAATATTCATTTT [XGTACX_site6447]	6.93
TCTATATATAAATATAAATATATATATATAATGTTA [TGCATGCA_negctrl_site92]	6.82
TAAAAAACAAAACAGGTGCTATATAATTTTCATTTT	7.5
ATTATAAATTAAAATACACACATATATACATAATAT [CACACA_site7337]	6.97
TCTTTTTGTTCGTGTACACACATGAAATTTATAAAA [CACACA_site1619]	7.51
AAGTATATACATATATGTACACATTGTCAGATAGAA [XGTACX_site1236]	7.12
CATGTAATATTAAACACACACTCATATAACACAATA [CACACA_site65]	6.95
AAAGAAAAAAAAAACACACACACACGCATTCAATAT [CACACA_site6169]	6.87
ATATATATTTATATATATATATATATATATATGTAT [GTGCAC_negctrl_site220]	8.18
TAGTTATTTATATACACACACATACAGACAAATAAA [CACACA_site7577]	7.28

Sequence	gcPBM binding intensity (ln)
TCTTAGATTATTTATTGTACTTATGCTTAAAAAATT [XGTACX_site3639]	7.23
GTCCAATAAGGAAGAGTGCAAAAATTAAATAATATA [GTGCAC_site9751]	8.91
ATATTTTCTTTTTAAAGTACATATTTGATTACAATA [XGTACX_site8414]	6.77
GAAAAAAAAGAAAAAACACACATATGATATATTTAT [CACACA_site1524]	6.62
TGTATATATATATAAAGTACATATAATATATATTTG [XGTACX_site5411]	6.98
AAATAAAATTATAACTGTACGTTGTATGAAATAATG [XGTACX_site5462]	7.29
CTGTTTAAAATATAAACACACATTGTTTGCTTTAGA [CACACA_site1301]	6.95
ATTTTTTTACTGCAACCATATTTTTCCCTTTTATTC [CACACA_negctrl_site1282]	7.16
TCTATAAAGTTCCATACATGCGCCATCATTTATATT [TGCATGCA_site195]	6.96
GAATACACCACGCACACACACTTGAGAAAAAATAAA [CACACA_site7747]	7.57
ATTATAATTATTTTGTTGCACTATTTTTGTAGGCCA [GTGCAC_site9734]	8.7
GTGTACATAGGTATAGCACACACAAATGTAGGTATT [CACACA_site9339]	6.87
TTTATAAAAATATACACACATACAAATATGCATATA [CACACA_site712]	6.87
GAAAAAAGGAAATAAAGAAAAAAAAAAATGAAATAT [XGTACX_negctrl_site318]	6.73
GTCAAATTTTTGTGCACACATATATAGTTATTATTA [CACACA_site2241]	10
TAATAATATATATGAAGTACAATAACTTTTTGTTTT [XGTACX_site292]	6.89
TTTATATGTATTAAGTGTACACATATAATCTATCTT [XGTACX_site4922]	6.93
TTTCTTTTCTCAGAAATTATTCAAATGAAAAAAAAT [TGCATGCA_negctrl_site44]	6.74
AAAATACACGCATACACACACACACCCACCCATATA [CACACA_site639]	7.14

Sequence	gcPBM binding intensity (ln)
AAAAAAAAAAAAAAAACACACACATACACCCAAAAA [CACACA_site7910]	7.77
TTACATATGGTTAGTAGTACATATATAAATGTAAAT [XGTACX_site7206]	7
GTATACACATATATATGTACTTAATTATTTTATGTC [XGTACX_site6707]	7.15
CAAAGGGAAATTAACACACACATATATATATATATA [CACACA_site2453]	9.24
AAACATGATTATTATAGTACAATTATAATTATTATA [XGTACX_site2590]	6.95
GTCATAAAAACATATACACACTTGAAATATAAAAAT [CACACA_site5315]	7.23
GAACTAATAATGAAAAGTACACATACACATATATAT [XGTACX_site6789]	7.35
AAATGTATACACATGGTGCGTAATATATTATATATA [GTGCAC_site9877]	9.09
CTACCAAATCTATAGACACACATATATATATATATT [CACACA_site2486]	7.17
AAATACAAGGGACATGCATACCACTATTTTTTAAAT [TGCATGCA_site588]	7.02
TTTATATAATAGTTATGTACTTAAACGAAAGATACA [XGTACX_site8495]	6.99
AAAGATATTTTTATCTCACACATATAATATATATAT [CACACA_site5478]	8.38
TAAAATTTAAGTTATACACACTTAAGTAACATCATC [CACACA_site6395]	6.85
TATAGAAAATTTATATGTACATATATATATATATAT [XGTACX_site4451]	9.78
GTTACTGCATACATAACACACATATTCAAAACACAT [CACACA_site3502]	7.28
TATTTACAGACATGCGCACACATAAATAAATAATAG [CACACA_site2411]	8.85
TAAGTTTGTCAATCAACACACACCTATTTATTATAT [CACACA_site3919]	6.92
CACTTTAATTTATGCACACATATGGAACAACAGCCA [CACACA_site994]	7.73

Reference: the supplement of paper PMC11417369
